Key:
Assay in all cases: SPR
[1] = target: T1, D1-AB-D2-D3 (FGFR3c), full-length FGFR3c ectodomain (UniProt P22607 23-375)
T1 sequence (looked up): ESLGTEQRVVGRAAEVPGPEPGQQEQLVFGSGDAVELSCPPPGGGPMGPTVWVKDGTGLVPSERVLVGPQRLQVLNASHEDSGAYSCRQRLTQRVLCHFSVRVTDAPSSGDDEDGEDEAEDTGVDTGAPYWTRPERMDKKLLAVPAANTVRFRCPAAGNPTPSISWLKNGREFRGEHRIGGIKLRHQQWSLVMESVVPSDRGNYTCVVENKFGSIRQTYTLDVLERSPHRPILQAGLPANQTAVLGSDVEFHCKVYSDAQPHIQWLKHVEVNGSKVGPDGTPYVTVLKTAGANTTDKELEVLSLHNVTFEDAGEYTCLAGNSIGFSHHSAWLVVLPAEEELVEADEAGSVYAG

[2] = target: T2, D1-AB11ALA-D2-D3 (FGFR3c) (UniProt P22607 23-375, residues D133 to D143 collectively mutated to alanines)
T2 sequence: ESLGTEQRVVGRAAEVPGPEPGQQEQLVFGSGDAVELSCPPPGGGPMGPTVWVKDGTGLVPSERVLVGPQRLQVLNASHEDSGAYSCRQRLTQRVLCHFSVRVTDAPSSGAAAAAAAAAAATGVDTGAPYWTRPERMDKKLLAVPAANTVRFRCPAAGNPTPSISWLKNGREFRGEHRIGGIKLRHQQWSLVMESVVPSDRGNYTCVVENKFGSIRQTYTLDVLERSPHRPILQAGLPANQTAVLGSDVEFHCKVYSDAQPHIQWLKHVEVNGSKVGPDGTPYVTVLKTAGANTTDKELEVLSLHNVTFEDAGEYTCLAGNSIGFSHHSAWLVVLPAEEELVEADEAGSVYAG

AB-D2-D3 (FGFR1c) = target: T3, AB-D2-D3 (FGFR1c) (UniProt P11362 120-376)
T3 sequence (looked up): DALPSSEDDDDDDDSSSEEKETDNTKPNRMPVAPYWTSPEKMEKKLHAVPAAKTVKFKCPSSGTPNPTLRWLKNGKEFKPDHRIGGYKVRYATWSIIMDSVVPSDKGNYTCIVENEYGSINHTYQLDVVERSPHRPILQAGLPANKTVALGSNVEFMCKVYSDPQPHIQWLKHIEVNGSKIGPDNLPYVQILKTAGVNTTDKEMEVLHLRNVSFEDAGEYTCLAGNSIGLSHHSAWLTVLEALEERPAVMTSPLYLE

D1-AB-D2-D3 (FGFR1c) = target: T4, D1-AB-D2-D3 (FGFR1c) (UniProt P11362 22-376)
T4 sequence (looked up): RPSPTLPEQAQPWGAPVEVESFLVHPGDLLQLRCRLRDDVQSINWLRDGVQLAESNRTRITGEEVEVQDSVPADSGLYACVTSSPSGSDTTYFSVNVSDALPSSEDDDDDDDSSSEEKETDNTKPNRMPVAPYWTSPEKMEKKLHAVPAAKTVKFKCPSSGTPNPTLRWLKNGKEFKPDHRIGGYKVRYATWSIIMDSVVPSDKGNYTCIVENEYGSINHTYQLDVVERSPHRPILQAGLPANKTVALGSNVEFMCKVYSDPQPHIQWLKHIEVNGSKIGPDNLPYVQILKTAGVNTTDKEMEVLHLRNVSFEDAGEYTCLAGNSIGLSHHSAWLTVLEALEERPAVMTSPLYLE

B1: FGF1 (ligand)
chain: not shown
For B1, the Kd [1] was 622 nM, the Kd [2] was 344 nM and the Kd (AB-D2-D3 (FGFR1c)) was 1230 nM. For the same binder, the Kd (D1-AB-D2-D3 (FGFR1c)) was 2000 nM.

From paper PMC3378326 (Structure(London, England:1993), 2012)
